Assay results published in the supplement of paper PMC10126150.
Values marked as one replicate rest on one cluster of the flow cell; about a third of the high ones do not repeat.

System: ATP
Assay: switch fluorescence ratio, 500 uM ATP over buffer (Cy3 cluster intensity, sum of 5 cycles each) (fold (ratio)); higher = stronger signal-on switching upon ATP binding; sequences stand for … in TCGTCGGCAGCGTCAGATGTGTATAAGAGACAGTTTTTTTTTTTTTTTTTTTTTTTTT…TC
Details: aptamer strand: ATP DNA aptamer (quencher-CACCTGGGGGAGTATTGCGGAGGAAGG + anchor), 100 nM annealed; ATP concentration: 500 uM; one replicate
Method in brief: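 For every switch-domain sequence, the fluorescence ratio is the mean of per-cluster values, each being summed target-cycle Cy3 intensity over summed buffer-cycle Cy3 intensity. Clusters outside 100-1000 RFU were excluded. On a modified Illumina MiSeq flow-cell, the Cy3-labelled switching-strand clusters were annealed to 100 nM quencher-labelled ATP aptamer, imaged in selection buffer and then after 15 min with 500 uM ATP at 22 °C. Five such cycles were run, with NaOH stripping and re-annealing between them.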
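Further: ATP exposure 15 min at 22 °C before imaging.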

Sequence	switch fluorescence ratio
GAAGGGAAGG	1.01
TATTCCTTTA	1.02
AATAAATCG	1.01
AGTATCGTTG	0.968
TCAGTTTCGT	0.965
GCCACCTGGA	0.993
TTGCTCATTT	1.12
GTGGTTACG	0.995
CCTGGGACGG	1.01
CGTGCGCGAA	0.954
TCCCGTGATC	2.55
ATCTGGGGAT	1.03
TCCAGAATGA	0.969
CATGTTTGGA	0.996
CCGTAGGCGT	1.12
TTCGGTGGCA	0.961
GTTGGTGTCT	0.959
GGTTGCGGTC	0.999
GAAGCAGAGT	1.11
ACGCTGATCA	1.01
TATTCCTCAA	1.26
TACTTGGTGG	1.04
TGGAGAATCT	1.04

Sequence	switch fluorescence ratio
TATAAAAGAT	1.01
CACCAACATA	1.12
GGAACCCCCA	1.23
TTTGCTGGCT	1.01
AATGGCGAGC	0.975
AACGGTAACA	1.1
AAGGCGTGG	1
TTTAGTGATC	0.99
TTGTTTTTCT	0.997
GCGCATTTCT	1.18
AATTGCCGGA	1.04
CGTGTCCGCT	1.04
AAACGAGGAT	1.01
ACATGAAACT	0.989
GGGTCCTGCA	1.01
TGATGTCAGA	0.977
CTCTATGGGC	1.18
TACTGTAACG	1.18
AAGATCTCTG	0.965
GCACTGTGAT	1.01
CTTATTTAGG	0.926
AGTACTAGAC	1.06
CATTTGCCAT	0.975

Sequence	switch fluorescence ratio
GGCACTATCA	1.01
TTAAGCTATG	1.01
TGTAGTTCTG	0.99
TAGAGAACGA	1.01
ATACTCATGT	1.03
ACGTGTTGC	1.01
TGGCGGAGAT	1.01
TCCCCTCGGG	1.03
ACGAGTGTG	1.05
CCAACACCCG	1.12
GGTCCTTCCA	1.01
AGCCTCCCAC	2.99
AAGTCTCGCG	0.965
AAACTATATC	1.05
CAGTTCTGTT	1.02
GCACTTTCTG	0.967
TAAATCTTGA	1.01
ATCGGCCGCC	1.05
TTAAAGTATC	2.17
TTGCCACGCG	1
CGCGGCAGGG	1.05
TCTTGTACTT	1.17
CCCAGGGAGA	1.23

Sequence	switch fluorescence ratio
GTTGTAGAGG	0.999
AGAGAGGGGG	0.976
GAGGTCTGCT	1.01
AATTGTGTCG	0.972
CGTGAACTAA	0.992
CTTATGTATG	1
GCTAGTAGCG	0.963
GTAACCATAG	1.01
GCATGTTTAT	0.961
TTGGTCTTGC	1.08
ATAAATAA	0.998
CTTCTAGGGC	0.96
AGACCGCACT	1.53
GTTAGGGGTA	0.957
AATCGATGCG	0.954
TCCTAGTTA	0.979
GCGAAGTTTC	1.01
GACTTTTTTT	0.992
GTACATAAGG	1.02
TTGACGTGGT	1
AAGCTATAGA	1.07
GTTGTTTGTG	0.96
GCAATGTAAG	0.994

Sequence	switch fluorescence ratio
TTGGGAGTTT	1.14
GTGAATGG	1.02
GCGCGAAGCA	1.04
GATATATCAT	1.03
GCTAACCAGC	0.985
CGAGACGCCT	0.977
ATCTTCCCGT	1.15
CAAGAATACC	1.01
GTGATGGCGG	0.989
CGCTCTGAAC	1.19
CCAATGTGTA	1.04
ACAAAAGAT	0.948
GTCCATTCGA	1.03
GATGGCCTGT	1
ACGTTGTGTC	0.982
GCGTTGTTAA	1.09
GTCTTATATC	1.17
ATATAGAGTA	0.955
TTTCTCTGGG	0.988
ACTGTATGGT	1.03
CAGCTTATTG	0.971
TTGAACCTGT	1.02
GGGGCCCCTG	1.32

Sequence	switch fluorescence ratio
TGCCTTCAGC	0.993
CTTTATAAGC	0.953
TCCTCGGGAA	2.35
GTTGTAGACT	1
GGTCCGTGTA	1
GGGTCAGGA	0.992
TAGACCAGCT	1.04
ATGCAATTAG	1.22
ACCTGAATTG	1.05
GCTGAGCGCG	0.982
ATTTTCATG	1.03
TGGTAACGCC	1.06
TGTAGAACTA	1.02
AAGGAAGGCT	0.994
AATCCTAACT	0.977
TACGTGTTCA	1.04
GAACTCAAAA	1.04
ATGTTTGATA	0.989
AACGTTACAT	1.37
TTATACCCAT	0.998
GGGGCATCAG	1.05
TTGACATCAG	1.05
AGCTTGGTGT	0.983

Sequence	switch fluorescence ratio
CTTGGGTAC	1
GATGGAGAGC	1.02
CGGCAACCGT	1.06
AGACAATCTG	1.06
ATATGTTTTA	1
GGCACGTCCT	0.983
AGGCTTAGGA	0.958
ACGTTCGTGA	1.02
AGGTGACATG	1.02
TGCTCGTACG	1.01
AATCGTGCGT	0.95
CTGACGTATG	1.02
GTCAGGCCCT	0.989
AGTATTTCA	0.953
GTCCAGTCGC	1.04
AAATTGAG	1.01
CGGCGGTATT	1.4
GCGTCTAGAG	0.953
GACTGACCTG	0.992
